{"source": "the supplement of paper PMC3334620", "note": "The full ranking holds about 33,000 sequences; the median of “E-score (-0.5 to 0.5)” is about -0.017, and the highest 2% start at about 0.3. Some of the results follow."}
{"molecular_target": "T1, Sut1 (UniProt P53032)", "T1 sequence": "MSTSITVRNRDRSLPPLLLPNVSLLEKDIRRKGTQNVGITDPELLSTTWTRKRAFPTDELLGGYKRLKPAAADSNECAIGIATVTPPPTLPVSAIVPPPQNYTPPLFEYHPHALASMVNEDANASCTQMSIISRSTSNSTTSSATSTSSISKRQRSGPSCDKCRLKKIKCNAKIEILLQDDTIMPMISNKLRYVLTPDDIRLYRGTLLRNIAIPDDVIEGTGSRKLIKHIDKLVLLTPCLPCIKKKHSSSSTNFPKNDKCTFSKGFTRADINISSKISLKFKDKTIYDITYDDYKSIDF", "experiment": "PBM E-score (8-mer binding enrichment) (E-score (-0.5 to 0.5)); higher = stronger / more preferred TF binding; most listed sequences are background and not binding sites", "conditions": "protein concentration: 200 nM; construct: GST-full length", "summary_of_the_method": "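Each ungapped eight-base word and its reverse complement, pooled, received an E-score from the Universal PBM Analysis Suite. Underlying scans, normalised with masliner, recorded fluorescent anti-GST bound to GST-tagged yeast transcription factors. These were applied at about 100-200 nM to universal all-10-mer Agilent arrays double-stranded by primer extension.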"}
{"sequence": "GTATGTGA", "PBM E-score": 0.124}
{"sequence": "GTCAGGTA", "PBM E-score": -0.111}
{"sequence": "ATAGAGCA", "PBM E-score": 0.0192}
{"sequence": "CATATGTA", "PBM E-score": 0.0389}
{"sequence": "TAGCTTCA", "PBM E-score": -0.0155}
{"sequence": "CGACATGA", "PBM E-score": -0.0559}
{"sequence": "GGACCAAC", "PBM E-score": 0.00139}
{"sequence": "AGCTGACG", "PBM E-score": -0.00958}
{"sequence": "ATATTCTA", "PBM E-score": 0.185}
{"sequence": "AAATGGGC", "PBM E-score": 0.0434}
{"sequence": "CGAGGTAC", "PBM E-score": -0.0755}
{"sequence": "TAGTGATA", "PBM E-score": -0.118}
{"sequence": "CTACTTCC", "PBM E-score": 0.00499}
{"sequence": "CTTCATTA", "PBM E-score": 0.196}
{"sequence": "GGTGATGA", "PBM E-score": -0.0168}
{"sequence": "CAACACCA", "PBM E-score": -0.0101}
{"sequence": "AAACGAAC", "PBM E-score": 0.244}
{"sequence": "CGCTACCA", "PBM E-score": -0.108}
{"sequence": "GGAGATGA", "PBM E-score": 0.245}
{"sequence": "TACGAGCA", "PBM E-score": -0.095}
{"sequence": "CCTTTTCC", "PBM E-score": -0.0113}
{"sequence": "GTTGCTGA", "PBM E-score": 0.0547}
{"sequence": "ACAAACAC", "PBM E-score": 0.185}
{"sequence": "CATCAACC", "PBM E-score": 0.00545}
{"sequence": "CATTTTGC", "PBM E-score": 0.154}
{"sequence": "GGTCAACA", "PBM E-score": 0.0614}
{"sequence": "AGGGATAC", "PBM E-score": -0.295}
{"sequence": "AACCAGCG", "PBM E-score": 0.00604}
{"sequence": "GTTCATGA", "PBM E-score": 0.16}
{"sequence": "CTCAATAC", "PBM E-score": 0.241}
{"sequence": "CATTAGCG", "PBM E-score": -0.00829}
{"sequence": "AGCGCATG", "PBM E-score": -0.208}
{"sequence": "AGAGATGA", "PBM E-score": 0.0449}
{"sequence": "ATGCTCAG", "PBM E-score": 0.0264}
{"sequence": "AGCAGAAA", "PBM E-score": 0.175}
{"sequence": "AACCCAAC", "PBM E-score": -0.0321}
{"sequence": "ACTAGAAA", "PBM E-score": 0.114}
{"sequence": "GATTCCTA", "PBM E-score": 0.026}
{"sequence": "TAGTCCCA", "PBM E-score": -0.21}
{"sequence": "ACTTTGAC", "PBM E-score": 0.052}
{"sequence": "ATGAAGCA", "PBM E-score": 0.0563}
{"sequence": "GAAAGACA", "PBM E-score": 0.29}
{"sequence": "CGCATGGC", "PBM E-score": 0.0513}
{"sequence": "CGGCAATC", "PBM E-score": 0.0237}
{"sequence": "GATGACGC", "PBM E-score": -0.0987}
{"sequence": "AGTATTTG", "PBM E-score": 0.107}
{"sequence": "AGAGCAAC", "PBM E-score": -0.169}
{"sequence": "ACGTAACT", "PBM E-score": 0.009}
{"sequence": "CCGGATCG", "PBM E-score": 0.123}
{"sequence": "ATTGCGGG", "PBM E-score": -0.0205}
{"sequence": "AACGTTAT", "PBM E-score": 0.17}
{"sequence": "ACATACCA", "PBM E-score": -0.13}
{"sequence": "CTCATTCC", "PBM E-score": 0.0207}
{"sequence": "GGTCGGGA", "PBM E-score": -0.106}
{"sequence": "GCAGTTCA", "PBM E-score": -0.0012}
{"sequence": "CGTTCTGA", "PBM E-score": -0.156}
{"sequence": "CCGGGTTA", "PBM E-score": 0.104}
{"sequence": "CAGGTTTC", "PBM E-score": 0.121}
{"sequence": "AGAACTCG", "PBM E-score": -0.03}
{"sequence": "AGCGCTAT", "PBM E-score": -0.0176}
{"sequence": "AAGACCGA", "PBM E-score": 0.238}
{"sequence": "AAGCGCTC", "PBM E-score": 0.00993}
{"sequence": "CTGTGAGA", "PBM E-score": -0.0848}
{"sequence": "GTGTGCCA", "PBM E-score": -0.129}
{"sequence": "ATTATCCG", "PBM E-score": 0.149}
{"sequence": "AAGTCAAT", "PBM E-score": 0.178}
{"sequence": "ATTCCTAC", "PBM E-score": 0.0631}
{"sequence": "AGTCACGA", "PBM E-score": -0.0583}
{"sequence": "CTCTCACA", "PBM E-score": 0.0236}
{"sequence": "CCGGAGGC", "PBM E-score": 0.156}
{"sequence": "CGTTACTA", "PBM E-score": 0.0702}
{"sequence": "AGACATCC", "PBM E-score": -0.197}
{"sequence": "AGCCATAA", "PBM E-score": -0.0493}
{"sequence": "GAGACTTA", "PBM E-score": -0.0721}
{"sequence": "AAGCGTAA", "PBM E-score": 0.057}
{"sequence": "CTCCATGA", "PBM E-score": 0.043}
{"sequence": "GACATATA", "PBM E-score": 0.233}
{"sequence": "TCAAACGA", "PBM E-score": 0.00602}
{"sequence": "CACGGACA", "PBM E-score": 0.153}
{"sequence": "TACTGCGA", "PBM E-score": -0.113}
{"sequence": "AGGCCCCT", "PBM E-score": -0.286}
{"sequence": "CATTTTAC", "PBM E-score": 0.286}
{"sequence": "ATTCATTC", "PBM E-score": 0.216}
{"sequence": "GCCTGCTA", "PBM E-score": -0.0423}
{"sequence": "CCACCCAC", "PBM E-score": -0.191}
{"sequence": "AGTGAGGC", "PBM E-score": -0.0565}
{"sequence": "AGCACGAA", "PBM E-score": 0.0707}
{"sequence": "GTAAGTAC", "PBM E-score": 0.0786}
{"sequence": "CTTATGCA", "PBM E-score": 0.0449}
{"sequence": "AGATTACC", "PBM E-score": 0.18}
{"sequence": "ACCAAATC", "PBM E-score": 0.019}
{"sequence": "AGGTTCTC", "PBM E-score": 0.164}
{"sequence": "CTTCGGCA", "PBM E-score": 0.132}
{"sequence": "CCTCCCAC", "PBM E-score": -0.0727}
{"sequence": "TAATGGTA", "PBM E-score": 0.182}
{"sequence": "ATCTGGCC", "PBM E-score": -0.162}
{"sequence": "GTCTTGTA", "PBM E-score": 0.0183}
{"sequence": "ATACCGCC", "PBM E-score": -0.0853}
{"sequence": "TAATTGCA", "PBM E-score": 0.148}
{"sequence": "GTCTAGAC", "PBM E-score": -0.28}
{"sequence": "GCAGCTTA", "PBM E-score": -0.137}
{"sequence": "CCCCAAGA", "PBM E-score": -0.154}
{"sequence": "ACGAGTTA", "PBM E-score": 0.0555}
{"sequence": "ATTGTATG", "PBM E-score": 0.175}
{"sequence": "AATGCCTC", "PBM E-score": -0.143}
{"sequence": "CAGCCGTC", "PBM E-score": -0.13}
{"sequence": "CGCTATTC", "PBM E-score": 0.117}
{"sequence": "TAGTAACA", "PBM E-score": 0.0104}
{"sequence": "AAATTGTA", "PBM E-score": 0.194}
{"sequence": "ACTTCTGA", "PBM E-score": -0.136}
{"sequence": "CAAACAAC", "PBM E-score": 0.242}
{"sequence": "ATAAACCC", "PBM E-score": 0.0489}
{"sequence": "GTAAGCTA", "PBM E-score": 0.226}
{"sequence": "ACTACCTC", "PBM E-score": -0.0526}
{"sequence": "TAAGCCGA", "PBM E-score": 0.117}
{"sequence": "AAGTGAGC", "PBM E-score": -0.0565}
{"sequence": "ACGACCTG", "PBM E-score": -0.28}
{"sequence": "CCCACACA", "PBM E-score": -0.252}
{"sequence": "GGGGATGA", "PBM E-score": -0.278}
{"sequence": "ACTTACCC", "PBM E-score": 0.0125}
{"sequence": "GACAACGC", "PBM E-score": -0.0716}
{"sequence": "AAGAATCG", "PBM E-score": 0.219}
{"sequence": "CCTGATGA", "PBM E-score": 0.0282}
{"sequence": "AGCGTCAG", "PBM E-score": -0.176}
{"sequence": "ACTTCGTA", "PBM E-score": 0.0704}
{"sequence": "ATCAATTG", "PBM E-score": 0.197}
{"sequence": "GCCACCCA", "PBM E-score": -0.184}
{"sequence": "CTCTTTGA", "PBM E-score": 0.0351}
{"sequence": "ACCTCGCG", "PBM E-score": -0.208}
{"sequence": "ATGAAGGA", "PBM E-score": 0.119}
{"sequence": "GAGTCATC", "PBM E-score": -0.0744}
{"sequence": "AACTCCTT", "PBM E-score": 0.19}
{"sequence": "CTGGATGC", "PBM E-score": -0.275}
{"sequence": "CAATTGAA", "PBM E-score": 0.0842}
{"sequence": "GTTATGAA", "PBM E-score": 0.182}
{"sequence": "ACGTGCAG", "PBM E-score": -0.234}
{"sequence": "CCGTTGCA", "PBM E-score": 0.0124}
{"sequence": "CGCTGAAG", "PBM E-score": -0.028}
{"sequence": "ACCTACCG", "PBM E-score": -0.0312}
{"sequence": "AAGCTACT", "PBM E-score": 0.0425}
{"sequence": "ATTCGGTG", "PBM E-score": 0.14}
{"sequence": "AGAGTCCA", "PBM E-score": -0.0986}
{"sequence": "ACCTTGCG", "PBM E-score": -0.0514}
{"sequence": "CTACCGGC", "PBM E-score": -0.164}
{"sequence": "CAAAGAAA", "PBM E-score": 0.115}
{"sequence": "TTCCGGAA", "PBM E-score": 0.395}
{"sequence": "GACTCTCC", "PBM E-score": -0.0114}
{"sequence": "AAATCCGT", "PBM E-score": 0.149}
{"sequence": "GACTGACA", "PBM E-score": 0.116}
{"sequence": "GACAGAAC", "PBM E-score": 0.11}
{"sequence": "ACCCCATG", "PBM E-score": -0.0491}
{"sequence": "ATAACCAT", "PBM E-score": 0.0405}
{"sequence": "CTGCAAGA", "PBM E-score": -0.136}
{"sequence": "CGTGCTCC", "PBM E-score": 0.166}
{"sequence": "GCTCCATA", "PBM E-score": -0.0214}
{"sequence": "ACCCCGGG", "PBM E-score": 0.347}
{"sequence": "GGGAGTCA", "PBM E-score": -0.126}
{"sequence": "ATTATCGG", "PBM E-score": 0.141}
{"sequence": "CAAATGGA", "PBM E-score": -0.0114}
{"sequence": "CAAGCCAG", "PBM E-score": -0.171}
{"sequence": "AGCCTATC", "PBM E-score": -0.0713}
{"sequence": "ACTGTACG", "PBM E-score": 0.0222}
{"sequence": "ATAACGTG", "PBM E-score": -0.0693}
{"sequence": "ACACTGGT", "PBM E-score": -0.102}
{"sequence": "AATCCACC", "PBM E-score": -0.0337}
{"sequence": "CGAGCCAG", "PBM E-score": -0.131}
{"sequence": "CCGTACAA", "PBM E-score": 0.0894}
{"sequence": "ACAGTTTG", "PBM E-score": -0.156}
{"sequence": "AAGCTAAA", "PBM E-score": 0.111}
{"sequence": "CAGTTGCG", "PBM E-score": 0.0442}
{"sequence": "AGCGGGCA", "PBM E-score": -0.228}
{"sequence": "CGGTCACC", "PBM E-score": -0.165}
